The antibiotic and cytotoxicity screens of Wong et al. (2023)
The list shows a part of the results.

How the values were obtained:
[1] = tested on: HSkMC (human skeletal muscle cells); test: cytotoxicity call (relative viability < 0.9); details: 10 µM
[2] = tested on: HepG2; test: cytotoxicity call (relative viability < 0.9); details: 10 µM
[3] = tested on: S. aureus RN4220; test: growth inhibition call (relative growth <= 0.2); details: 50 µM

COCC#Cc1ccc2c(c1)O[C@@H](CN(C)C(=O)c1ccccc1)[C@H](C)CN([C@H](C)CO)S2(=O)=O
inactive: cytotoxicity call [1] | cytotoxicity call [2] | growth inhibition call [3]

C[C@H]1CN([C@@H](C)CO)C(=O)Cc2cc(NS(=O)(=O)c3cccs3)ccc2O[C@@H]1CN(C)Cc1ccc(Cl)c(Cl)c1
inactive: cytotoxicity call [1] | cytotoxicity call [2] | growth inhibition call [3]

CC(C)NC(=O)Nc1ccc2c(c1)C(=O)N([C@H](C)CO)C[C@H](C)[C@@H](CN(C)C(=O)NC1CCCCC1)O2
inactive: cytotoxicity call [1] | cytotoxicity call [2] | growth inhibition call [3]

C[C@H]1CN([C@@H](C)CO)C(=O)c2cccc(NC(=O)Nc3ccc4c(c3)OCO4)c2O[C@@H]1CN(C)Cc1ccc(C(=O)Nc2ccccc2N)cc1
inactive: cytotoxicity call [1] | cytotoxicity call [2] | growth inhibition call [3]

C[C@H]1CN([C@@H](C)CO)C(=O)c2cccc(NC(=O)C3CCOCC3)c2O[C@H]1CN(C)S(=O)(=O)c1cccs1
inactive: cytotoxicity call [1] | cytotoxicity call [2] | growth inhibition call [3]

CC(C)NC(=O)N(C)C[C@H]1Oc2ccc(NC(=O)CCCN(C)C)cc2C(=O)N([C@@H](C)CO)C[C@H]1C
inactive: cytotoxicity call [1] | cytotoxicity call [2] | growth inhibition call [3]

CCCNC(=O)N1C[C@H](O)COC[C@@H]2O[C@@H](CC(=O)N3CCN(C)CC3)CC[C@H]21
inactive: cytotoxicity call [1] | cytotoxicity call [2] | growth inhibition call [3]

C[C@@H]1CCCCO[C@H](CN(C)C(=O)Cc2ccccc2)[C@H](C)CN([C@H](C)CO)C(=O)c2cc(NC(=O)Nc3ccccc3)ccc2O1
inactive: cytotoxicity call [1] | cytotoxicity call [2] | growth inhibition call [3]

C[C@@H]1CCCCO[C@H](CN(C)S(=O)(=O)c2ccccc2)[C@H](C)CN([C@H](C)CO)C(=O)c2cc(NC(=O)C3CCCCC3)ccc2O1
inactive: cytotoxicity call [1] | cytotoxicity call [2] | growth inhibition call [3]

C[C@H](CO)N1C[C@H](C)[C@H](CN(C)C(=O)Nc2ccc(C(F)(F)F)cc2)Oc2ccc(NC(=O)Cc3cn(C)c4ccccc34)cc2C1=O
inactive: cytotoxicity call [1] | cytotoxicity call [2] | growth inhibition call [3]

COc1ccc(S(=O)(=O)Nc2cccc3c2O[C@@H](CN(C)S(=O)(=O)c2cccs2)[C@@H](C)CN([C@@H](C)CO)C3=O)cc1
inactive: cytotoxicity call [1] | cytotoxicity call [2] | growth inhibition call [3]

Cc1nn(C)cc1NC(=O)C[C@@H]1CC[C@@H]2[C@@H](COc3ccc(NC(=O)C4CCOCC4)cc3C(=O)N2C)O1
inactive: cytotoxicity call [1] | cytotoxicity call [2] | growth inhibition call [3]

CC(C)(C)[S@@](=O)N1Cc2cc(C(=O)NCc3ccc4c(c3)OCO4)nc(-c3cccc(-c4cccnc4)c3)c2[C@H]1CCO
inactive: cytotoxicity call [1] | cytotoxicity call [2] | growth inhibition call [3]

CC(C)NC(=O)Nc1cccc2c1O[C@H](CN(C)Cc1ccc3c(c1)OCO3)[C@@H](C)CN([C@H](C)CO)C2=O
inactive: cytotoxicity call [1] | cytotoxicity call [2] | growth inhibition call [3]

C[C@@H]1CN([C@@H](C)CO)C(=O)Cc2cc(NC(=O)Nc3ccccc3)ccc2O[C@@H]1CN(C)C(=O)Nc1ccc(C(F)(F)F)cc1
inactive: cytotoxicity call [1] | cytotoxicity call [2] | growth inhibition call [3]

Cc1noc(C)c1S(=O)(=O)Nc1cccc2c1O[C@H](CN(C)Cc1ccc(C(=O)O)cc1)[C@@H](C)CN([C@@H](C)CO)C2=O
inactive: cytotoxicity call [1] | cytotoxicity call [2] | growth inhibition call [3]

C[C@@H]1CN([C@H](C)CO)C(=O)c2cc(NC(=O)Nc3ccc(F)cc3)ccc2O[C@@H]1CN(C)Cc1ccc(Cl)c(Cl)c1
inactive: cytotoxicity call [1] | cytotoxicity call [2] | growth inhibition call [3]

C[C@@H]1CN([C@@H](C)CO)C(=O)Cc2cc(NC(=O)Nc3ccccc3)ccc2O[C@@H]1CN(C)S(=O)(=O)c1cn(C)cn1
inactive: cytotoxicity call [1] | cytotoxicity call [2] | growth inhibition call [3]

COc1ccc(S(=O)(=O)Nc2ccc3c(c2)CC(=O)N([C@H](C)CO)C[C@H](C)[C@@H](CN(C)C(=O)Nc2c(C)noc2C)O3)cc1
inactive: cytotoxicity call [1] | cytotoxicity call [2] | growth inhibition call [3]

COc1ccc(C#Cc2cnc3c(c2)C(=O)N([C@H](C)CO)C[C@H](C)[C@@H](CN(C)C(=O)CN(C)C)O3)cc1
inactive: cytotoxicity call [1] | cytotoxicity call [2] | growth inhibition call [3]

O=C(O)c1cccc(O)c1O
inactive: cytotoxicity call [1] | cytotoxicity call [2] | growth inhibition call [3]

C[C@H](CO)N1C[C@H](C)[C@@H](CN(C)S(=O)(=O)c2cccs2)Oc2ccc(NC(=O)Nc3cccc4ccccc34)cc2CC1=O
inactive: cytotoxicity call [1] | cytotoxicity call [2] | growth inhibition call [3]

COC(=O)c1c2oc(c1C(=O)OC)C(=O)N(C)Cc1cn(nn1)C[C@@H](C)NC(=O)N[C@H](CO)CC2
inactive: cytotoxicity call [1] | cytotoxicity call [2] | growth inhibition call [3]

COc1ccc(C#Cc2cnc3c(c2)C(=O)N([C@H](C)CO)C[C@H](C)[C@H](CN(C)CC2CCOCC2)O3)cc1
inactive: cytotoxicity call [1] | cytotoxicity call [2] | growth inhibition call [3]
